From PMC4336329 (PLoS ONE, 2015)
Hit rate of the full screen: of about 310,000 compounds, about 2,200 (0.71%) showed an effect of 50% or more. Effects have a minus sign here. The list shows a part of the results.

What follows are compounds tested against human ether-à-go-go-related gene (hERG) potassium channel (human, UniProt Q12809) (assay: primary screen, population patch clamp on CHO cells stably expressing hERG).
human ether-à-go-go-related gene (hERG) potassium channel, sequence (Q12809 whole entry, looked up): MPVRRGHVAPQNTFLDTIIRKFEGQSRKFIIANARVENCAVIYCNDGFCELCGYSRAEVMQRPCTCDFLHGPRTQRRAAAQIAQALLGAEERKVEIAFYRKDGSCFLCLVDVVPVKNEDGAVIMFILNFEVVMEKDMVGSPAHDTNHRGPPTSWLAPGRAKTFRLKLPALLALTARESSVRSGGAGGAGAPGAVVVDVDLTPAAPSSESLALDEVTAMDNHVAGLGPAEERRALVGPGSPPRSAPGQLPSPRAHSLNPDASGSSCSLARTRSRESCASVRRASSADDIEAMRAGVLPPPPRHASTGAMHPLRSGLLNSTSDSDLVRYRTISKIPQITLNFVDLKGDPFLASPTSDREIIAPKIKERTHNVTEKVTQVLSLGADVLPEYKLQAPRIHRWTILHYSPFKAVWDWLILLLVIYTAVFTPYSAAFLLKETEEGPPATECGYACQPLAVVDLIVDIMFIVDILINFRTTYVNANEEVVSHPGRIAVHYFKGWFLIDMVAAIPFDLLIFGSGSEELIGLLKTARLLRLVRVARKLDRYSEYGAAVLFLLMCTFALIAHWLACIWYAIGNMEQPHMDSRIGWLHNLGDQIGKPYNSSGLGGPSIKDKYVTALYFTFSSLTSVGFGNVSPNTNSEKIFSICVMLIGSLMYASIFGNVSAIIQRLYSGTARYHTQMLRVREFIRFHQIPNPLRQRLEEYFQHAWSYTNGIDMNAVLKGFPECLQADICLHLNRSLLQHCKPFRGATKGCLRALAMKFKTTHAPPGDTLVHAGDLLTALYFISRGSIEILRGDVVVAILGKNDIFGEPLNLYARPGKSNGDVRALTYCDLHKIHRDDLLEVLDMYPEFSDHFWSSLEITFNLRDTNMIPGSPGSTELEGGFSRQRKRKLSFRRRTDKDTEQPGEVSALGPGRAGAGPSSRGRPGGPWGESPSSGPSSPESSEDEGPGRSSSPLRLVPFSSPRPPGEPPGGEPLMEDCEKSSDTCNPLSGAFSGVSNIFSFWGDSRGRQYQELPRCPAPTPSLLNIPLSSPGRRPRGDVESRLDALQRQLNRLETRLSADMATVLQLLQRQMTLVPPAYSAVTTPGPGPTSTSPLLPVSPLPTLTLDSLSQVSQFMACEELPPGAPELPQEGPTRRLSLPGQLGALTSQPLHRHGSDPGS

Compared with `Cc1ccc(-c2csc(N(CCO)CCCn3c(C(F)(F)F)nc4cc(C(F)(F)F)ccc43)n2)cc1`, `CN(C)CCCN(C(=O)c1cc(-c2cccs2)nc2ccccc12)c1nc2ccc(F)cc2s1.Cl` is higher in “hERG current change (%, negative = inhibition) at 1uM” value: 8.62% for the first, 13.3% for the second.

First: CC1CCCC(C)N1C(=O)COC(=O)c1n[nH]c(=O)c2ccccc12 (stereo not shown)
Second: COC(=O)c1cn(CC(=O)N2CCCCC2C)c2ccccc12 (stereo not shown)
The “hERG current change (%, negative = inhibition) at 1uM” value of the first is higher: 5.87% for the first, 0.442% for the second.

First: Cc1nnn(C23CC4CC(CC(CC(=O)Nc5cccc(F)c5)(C4)C2)C3)n1
Second: Cc1cc(C(=O)NCC23CC4CC(CC(C4)C2)C3)c(C)o1
The “hERG current change (%, negative = inhibition) at 1uM” value of the first is lower: -1.04% for the first, 2.47% for the second.

Compared with `Cc1cccc(NC(=O)CCN2C(=O)c3ccccc3C2=O)c1`, `COc1ccccc1OCCC(=O)OCCN1C(=O)c2ccccc2C1=O` is higher in “hERG current change (%, negative = inhibition) at 1uM” value: 5.06% for the first, 6.21% for the second.

First: CC(Sc1ccc(Cl)cc1)C(=O)Nc1ccccc1-c1ccccc1 (stereo not shown)
Second: N#C/C(=N\Nc1ccccc1F)c1nc(-c2ccccc2)cs1
The “hERG current change (%, negative = inhibition) at 1uM” value of the first is higher: 17.4% for the first, 14.8% for the second.

First: Cc1csc2c(N3CCN(S(=O)(=O)c4ccc(Cl)cc4)CC3)ncnc12
Second: CCCOc1ccc(/C=C/C(=O)N2CCN(c3ccccn3)CC2)cc1
The “hERG current change (%, negative = inhibition) at 1uM” value of the first is lower: 9.13% for the first, 9.63% for the second.

Compared with `COc1cccc(CNC(=O)C2CCN(S(=O)(=O)N3CCC4(CC3)OCCO4)CC2)c1`, `COc1cccc(NC(=S)N2CCC(NC(=O)C3CCCCC3)CC2)c1` is higher in “hERG current change (%, negative = inhibition) at 1uM” value: 7.66% for the first, 13.6% for the second.

Going from `CC(C)c1onc(C(=O)NCc2ccccc2)c1[N+](=O)[O-]` to `CCN1C(=O)CSc2ccc(C(=O)NCc3ccccc3)cc21`, the “hERG current change (%, negative = inhibition) at 1uM” value rises from 12.1% to 14.3%.

First: COc1ccc(C(=O)COC(=O)c2cnc(C)cn2)c(OC)c1
Second: COc1ccc(NC(=O)Cn2c(-c3ccccc3)cc(C(C)=O)c2C)c(OC)c1
The “hERG current change (%, negative = inhibition) at 1uM” value of the first is lower: -23.5% for the first, -2.57% for the second.

Going from `O=[N+]([O-])c1cccc(S(=O)(=O)N/N=C\c2ccc3c(c2)OCO3)c1` to `O=C(O)c1ccccc1NS(=O)(=O)c1cccc(-n2sc3ccccc3c2=O)c1`, the “hERG current change (%, negative = inhibition) at 1uM” value rises from 2.95% to 12.2%.

Compared with `Cc1ccccc1-n1c(-c2ccoc2C)n[nH]c1=S`, `CSc1nnc(-c2cc(C)on2)n1-c1ccccc1` is lower in “hERG current change (%, negative = inhibition) at 1uM” value: 12% for the first, 7.24% for the second.

Going from `CNCCCCOc1ccc(C(C)(C)C)cc1Cl.O=C(O)C(=O)O` to `CCCOc1ccc(OCCCCNC(C)CC)cc1.O=C(O)C(=O)O` (stereo not shown), the “hERG current change (%, negative = inhibition) at 1uM” value falls from 10.5% to 1.92%.

First: CC1C[C@@]2(NC(=O)NC2=O)C(C)CN1C (stereo partly shown)
Second: COc1cccc(-c2cc(C(=O)N3CCCCC3C)no2)c1 (stereo not shown)
The “hERG current change (%, negative = inhibition) at 1uM” value of the first is higher: 14.9% for the first, 13.9% for the second.

Going from `OCCN(Cc1ccccc1)C(=S)NC1CCCCC1` to `CN(C(=O)NC1CCCCC1)c1ccccc1`, the “hERG current change (%, negative = inhibition) at 1uM” value falls from 13.2% to 10.6%.

Compared with `CC1(C)CC(=O)C(C=Nc2ccc(C(=O)c3ccccc3)cc2N=CC2=C(O)CC(C)(C)CC2=O)=C(O)C1`, `C=CCn1c(O)c(C=Nc2c(C)n(C)n(-c3ccccc3)c2=O)c(=O)[nH]c1=O` is lower in “hERG current change (%, negative = inhibition) at 1uM” value: 8.62% for the first, -5.22% for the second.

First: N[C@@H](Cc1ccccc1)C(=O)N1CCC(C(=O)NCC(=O)Nc2ccc(F)cc2)CC1
Second: COc1ccccc1CNC(=O)C1CCN(Cc2nc(-c3cccc(Cl)c3)oc2C)CC1
The “hERG current change (%, negative = inhibition) at 1uM” value of the first is higher: 8.41% for the first, -68.3% for the second.

First: CCCNC(=O)C1CC(=O)N(c2ccc(OCc3ccc(Cl)cc3)cc2)C1 (stereo not shown)
Second: O=C(Cc1ccc(Cl)cc1)Oc1cccc2cccnc12
The “hERG current change (%, negative = inhibition) at 1uM” value of the first is higher: 13.3% for the first, 10.4% for the second.

First: COC(=O)C1=C(C)Nc2nnnn2C1c1cccnc1 (stereo not shown)
Second: COC(=O)c1c(N)c2ccccc2[nH]c1=O
The “hERG current change (%, negative = inhibition) at 1uM” value of the first is higher: 13.1% for the first, 11.2% for the second.

Going from `Nc1ncnc2c1c(-c1ccc(Oc3ccccc3)cc1)cn2C1CCCC1` to `CCCCOc1ccc(-c2n[nH]c(=S)n2Cc2ccccc2)cc1`, the “hERG current change (%, negative = inhibition) at 1uM” value rises from 11.9% to 12.8%.

Compared with `Cc1ccsc1C(=O)N1CCCC(CO)(Cc2ccccc2)C1` (stereo not shown), `O=C(O)CCSc1nc2ccccc2n1Cc1ccccc1` is higher in “hERG current change (%, negative = inhibition) at 1uM” value: 9.83% for the first, 13.1% for the second.

Going from `CC(C)c1nn2c(N)c(/C=C3\C=Nc4ccccc43)c(=O)nc2s1` to `O=c1oc(-c2ccccc2Cl)nc2ccsc12`, the “hERG current change (%, negative = inhibition) at 1uM” value falls from 14.2% to 6.55%.

Compared with `CCOC(=O)NC1C=CS(=O)(=O)C1` (stereo not shown), `CC1=C(C)CC(C(=O)Nc2ccc(C(N)=O)cc2)C(C(=O)O)C1` (stereo not shown) is higher in “hERG current change (%, negative = inhibition) at 1uM” value: 13.4% for the first, 16.6% for the second.

Going from `O=S(=O)(NC1CCCCC1)c1ccc(F)c2ccccc12` to `O=S(=O)(Nc1ccc(O)c(CN2CCCCC2)c1)c1ccccc1`, the “hERG current change (%, negative = inhibition) at 1uM” value falls from 17.5% to -1.46%.

Compared with `Nc1c(C(=O)OCC2CCCO2)c2nc3ccccc3nc2n1Cc1cccs1` (stereo not shown), `Cc1ccccc1C(=O)NCCn1cc(SCC(=O)NCC2CCCO2)c2ccccc21` (stereo not shown) is higher in “hERG current change (%, negative = inhibition) at 1uM” value: -1.08% for the first, 7.28% for the second.

Going from `COc1ccccc1-c1cc(C2CC2)nc(N)c1C#N` to `COc1cc2nc(N3CCN(C(=O)OCc4ccccc4)[C@H](C(=O)NC(C)(C)C)C3)nc(N)c2cc1OC.O`, the “hERG current change (%, negative = inhibition) at 1uM” value rises from -5.25% to 5.96%.

Compared with `CC1CCCCN1C(=O)c1cc2c(=O)n3ccccc3nc2s1` (stereo not shown), `O=C(CN1C(=O)CCSc2ccccc21)Nc1cccc(F)c1` is lower in “hERG current change (%, negative = inhibition) at 1uM” value: 2.7% for the first, -0.243% for the second.

Going from `CCOc1ccc(-c2cccc(NC(=O)c3ccco3)c2)nn1` to `CCOc1ccc(C(=O)Nc2cccc(-c3cc4ccccc4oc3=O)c2)cc1[N+](=O)[O-]`, the “hERG current change (%, negative = inhibition) at 1uM” value falls from 7.43% to 4.76%.

Going from `COC(=O)CSc1nnc(-c2sc3cc(OC)ccc3c2Cl)n1C` to `CCOC(=O)c1c(C)[nH]c(C(=O)CSc2nnc(CC(C)c3ccccc3)o2)c1C` (stereo not shown), the “hERG current change (%, negative = inhibition) at 1uM” value rises from 4.01% to 10.3%.

First: COC(=O)c1cc(NC2c3ccccc3C(=O)N2Cc2ccco2)cc(C(=O)OC)c1 (stereo not shown)
Second: Cc1ccc(NC(=O)COC(=O)c2cc(C)nc3ccccc23)c([N+](=O)[O-])c1
The “hERG current change (%, negative = inhibition) at 1uM” value of the first is lower: 5.13% for the first, 11.8% for the second.

Compared with `Cc1ccc(-c2n[nH]c(=S)n2/N=C/c2cccs2)cc1`, `O=C(Nc1nc(-c2ccc(F)cc2)cs1)c1cccnc1` is higher in “hERG current change (%, negative = inhibition) at 1uM” value: 16.1% for the first, 17% for the second.

Compared with `COCCCNC(NC(=O)c1ccc(Br)cc1)C(Cl)(Cl)Cl` (stereo not shown), `CC(C)(C)C(=O)O/N=C(\N)c1ccc(Br)cc1` is higher in “hERG current change (%, negative = inhibition) at 1uM” value: -1.42% for the first, 11.1% for the second.

Going from `Cc1cc(N2CCOCC2)cc(C)[n+]1[O-]` to `NCCCN1CCOCC1`, the “hERG current change (%, negative = inhibition) at 1uM” value rises from -7.5% to -6.97%.

Going from `O=C(Nc1ccccc1OC(F)F)c1ccc(Br)o1` to `COc1ccc(N2CCN(C(=O)c3ccc(Br)o3)CC2)cc1`, the “hERG current change (%, negative = inhibition) at 1uM” value rises from -5.32% to 1.91%.

Going from `Cc1ccc(OCCCCn2ccnc2)c([N+](=O)[O-])c1` to `COc1ccc(/C=C/C(=O)O/N=C(\N)c2cccnc2)cc1OC`, the “hERG current change (%, negative = inhibition) at 1uM” value rises from -24.5% to -1.96%.

Compared with `Cc1ccc2oc(C(=O)NCC(c3ccco3)N3CCCC3)c(C)c2c1` (stereo not shown), `Cc1c(C)n(Cc2ccc(F)cc2)c2ccc(C(=O)NCCCN3CCOCC3)cc12` is higher in “hERG current change (%, negative = inhibition) at 1uM” value: 0.0217% for the first, 1.06% for the second.

Going from `CC1CC(Nc2ccccc2)=NC1(C)C` (stereo not shown) to `O=C1OC(Nc2ccc(Cl)cn2)c2ccccc21` (stereo not shown), the “hERG current change (%, negative = inhibition) at 1uM” value falls from 18.4% to 2.2%.

Compared with `Cn1cc(CN2CCC(Oc3ccc(C(=O)N4CCCC4)cc3)CC2)cn1`, `CCOc1ccccc1CN1CCNC(=O)C1CC(=O)NC1CCCCCCC1` (stereo not shown) is lower in “hERG current change (%, negative = inhibition) at 1uM” value: 11.7% for the first, 1.87% for the second.

First: O=C(/C=C/c1ccccc1)NCc1cccnc1
Second: Cn1nc(C(=O)NCc2ccc(F)cc2)c2c1-c1ccccc1S(=O)(=O)C2
The “hERG current change (%, negative = inhibition) at 1uM” value of the first is higher: 14.8% for the first, -4.01% for the second.

First: O=C(O)c1ccc(N2C(=O)CC(SC(=Nc3ccccc3)Nc3ccccc3)C2=O)cc1 (stereo not shown)
Second: Cn1c(=O)cc(OCCCC(=O)NCCCN2CCN(Cc3ccccc3)CC2)c2ccccc21
The “hERG current change (%, negative = inhibition) at 1uM” value of the first is higher: 16.7% for the first, 7.35% for the second.

First: O=C(CCC1CCCC1)NC1CCCCC1
Second: CC(=O)Nc1ccc(S(=O)(=O)Nc2nc(CN3CCOCC3)nc3sc4c(c23)CCCC4)cc1
The “hERG current change (%, negative = inhibition) at 1uM” value of the first is lower: 8.53% for the first, 13.5% for the second.

First: CCOc1ccc(OCC(=O)N(CCC2=CCCCC2)c2c(N)n(Cc3ccccc3)c(=O)[nH]c2=O)cc1
Second: CCOCCCNC(=O)COc1ccc(OC)cc1
The “hERG current change (%, negative = inhibition) at 1uM” value of the first is higher: 13.9% for the first, 12% for the second.

Going from `O=C(O)C1C2C=CC(C2)C1C(=O)NCc1ccc2c(c1)OCO2` (stereo not shown) to `O=C(NCc1ccc(F)cc1)C(=O)NCC1OCCCN1S(=O)(=O)c1cccs1` (stereo not shown), the “hERG current change (%, negative = inhibition) at 1uM” value rises from -1.95% to 11.4%.

Going from `CCN(CC)C(=S)Nc1cc(C(=O)OC)ccc1C(=O)OC` to `CCN(CC)CCN(C(=O)c1cc2ccccc2cc1OC)c1nc2ccc(F)cc2s1.Cl`, the “hERG current change (%, negative = inhibition) at 1uM” value rises from 10.2% to 11.4%.

Going from `CCCCN1CC[C@H]2C=CC[C@@H](C(=O)Nc3ccc(OC)cc3)[C@H]2C1=O` to `CC(C)NC(=O)Cn1cnc2c(cnn2-c2ccc(F)cc2)c1=O`, the “hERG current change (%, negative = inhibition) at 1uM” value rises from -19.8% to 14.4%.

Compared with `CCNc1ccc2c(Cl)cc(=O)oc2c1`, `Cc1cc(S(=O)(=O)Nc2cccc(C(=O)O)c2)c(C)c(S(=O)(=O)c2ccc(Cl)cc2)c1` is higher in “hERG current change (%, negative = inhibition) at 1uM” value: 4.44% for the first, 17.5% for the second.

With `Cc1cc(C)n(-c2ncc(-c3ccccc3)nn2)n1` the “hERG current change (%, negative = inhibition) at 1uM” value was -13.8%.
